Test results from PubChem BioAssay AID1963576 (National Center for Advancing Translational Sciences (NCATS), 2024).
Among all 46,000 compounds or so, about 60 (0.1%) were called active. Not shown: some 3% with an inconclusive outcome. The call rests on the fitted dose curve; in most records, active means well fitted inhibition curve with a large enough effect; inconclusive means small, poorly fitted or top-dose-only effect; inactive means no such curve, though single readings can be large or run the other way. The list shows a part of the results.

Assay: Primary qHTS assay for Inhibitors of ovarian cancer metastasis using an organotypic tumor microenvironment (TME) model. Further: nearly all actives have a fitted effect of over 65% in size.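 On activity change, negative = inhibition: plate controls were DMSO wells for no effect and tomatine positive control wells for full effect.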
Conditions: SKOV3ip1-GFP adhesion/invasion on 3D omental model, fluorescence; series mostly up to 45.8 µM; activity change, negative = inhibition: at the top concentration
Procedure, shortened: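 qHTS, 4-pt dose (0.36-46 umol/L); SKOV3ip1-GFP, 1,200 cells/well, no FBS; primary omental fibroblast/mesothelial co-culture 48 h pre-grown; 2 h RT + 16 h 37 C; PBS wash, 4% PFA; GFP count 488/509 nm.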

Structure (SMILES) | activity change, negative = inhibition | outcome
CCN1C(=O)c2ccccc2S(=O)c2ccc(C(=O)NCc3ccc(F)cc3)cc21 (stereo unspecified) | inactive: 4.34% | –
COCCCNC(=O)C(=O)NCC(c1ccc2c(c1)OCO2)N1CCOCC1 (stereo unspecified) | inactive: -11.2% | –
CCOc1ccc(C(c2c(O)cc(C)n(CCOC)c2=O)N2CCN(c3ccccc3F)CC2)cc1 (stereo unspecified) | inactive: 12% | –
CC(C)N(Cc1ccccc1)c1ncnc2c1nnn2C | – | inactive
Cc1cc(C)c2oc(C(=O)Nc3sc4c(c3C(=O)NCc3ccco3)CCCC4)cc(=O)c2c1 | inactive: 3.04% | –
Cc1ccc(N(C(=O)COc2ccccc2C)S(=O)(=O)c2ccc(Cl)cc2)cc1 | inactive: 4.44% | –
O=C(NCc1cccnc1)c1nn(-c2ccccc2F)nc1CO | – | inactive
Cc1ccc(CNC(=O)CCSCc2ccccc2F)cc1 | inactive: -3.87% | –
CCOCCCNC(=O)c1ccc(NC(=O)N2CCCCc3ccccc32)cc1 | inactive: -7.71% | –
Cc1c(NC(=O)c2ccc(Cl)cc2)cc(C(C)C)c(O)c1S(=O)(=O)c1ccc(Cl)cc1 | inactive: -12.4% | –
COc1ccccc1N1CCN(c2ccc(=O)n(CC(=O)Nc3ccc(F)c(F)c3)n2)CC1 | inactive: 2.52% | –
CCOc1ccc(NC(=O)N2CCC(CN3CCc4ccccc4C3)CC2)cc1 | inactive: 8.75% | –
COc1ccccc1NC(=O)Cn1c(=O)n(-c2ccc(C)cc2)c(=O)c2ccc(C(=O)NCc3ccco3)cc21 | inactive: -6.15% | –
Cc1ccc(NC(=O)c2cccc(N3CCCS3(=O)=O)c2)cc1 | – | inactive
Cc1ccc(Nc2c(-c3cc(Br)ccc3F)nc3cc(C)ccn23)cc1 | inactive: -20.7% | –
CCN(CC)S(=O)(=O)c1cc(-c2nnc(Nc3ccc(OC)c(C(N)=O)c3)c3ccccc23)ccc1C | inactive: -19.2% | –
O=C(NCc1ccc(Cl)cc1)C1CCCN(C(=O)c2cnn(-c3ccc(F)cc3)c2-n2cccc2)C1 (stereo unspecified) | inactive: -7.41% | –
CCC(=O)N1CCc2cc(CNC(=O)C(CC)c3ccccc3)ccc21 (stereo unspecified) | inactive: -0.46% | –
Cc1ccc(C)c(Nc2cc(C(=O)NC3CCCCC3)c3ccccc3n2)c1 | inactive: 3.6% | –
CCCc1cc(C(=O)Nc2c(C)nn(Cc3ccc(C)cc3)c2C)no1 | – | inactive
O=C(CCn1c(=O)c2cccn2c2ccc(F)cc21)NCCc1ccccc1 | – | inactive
CCc1cc2c(cc3c(=O)n(CC(=O)NCCc4ccc(OC)c(OC)c4)ncn32)s1 | – | inactive
COC(=O)c1cc(S(=O)(=O)NCC2CCN(Cc3cccc(F)c3)CC2)c[nH]1 | – | inactive

Structure (SMILES) | activity change, negative = inhibition | outcome
COc1cccc(OCCSc2nc3ccccc3n2CC(=O)N2CCCCC2)c1 | inactive: 8.92% | –
Cc1ccccc1Cn1c(=O)n(CCc2ccccc2)c(=O)c2c(C)c(C)sc21 | inactive: 1.59% | –
CCC[C@H](Nc1nc(-c2ccc(NC(=O)NCC)c(OC)c2)ncc1C)c1cccnc1 | inactive: 8.64% | –
COc1cccc(-n2cc(C(=O)NCc3ccccc3OC)c3ccccc3c2=O)c1 | inactive: -9.49% | –
COc1ccc(-c2nc(CN3CCC(C(=O)NCCCOC(C)C)CC3)c(C)o2)cc1OC | inactive: 3.88% | –
Cc1cccc(C)c1-n1ncc(C(=O)NCCN2CCOCC2)c1C1CCN(C(=O)OC(C)(C)C)CC1 | inactive: -3.53% | –
COc1ccc(NC(=O)Cn2c(=O)n(Cc3nc(C)no3)c(=O)c3cc4c(cc32)OCO4)cc1OC | inactive: -1.28% | –
COc1ccc(OC)c(C2N=C(N)Nc3nc4ccccc4n32)c1 (stereo unspecified) | inactive: 12.7% | –
COc1cc(OC)c(C2Nc3ccccc3-c3nnc(SCc4ccccc4)nc3O2)cc1OC (stereo unspecified) | inactive: 9.09% | –
O=C(CCn1ccc2cc(S(=O)(=O)N3CCCC3)ccc21)NCc1cccc(F)c1 | inactive: -1.88% | –
COC(=O)CSc1nc(-c2ccc(F)cc2)cc(C(F)(F)F)n1 | inactive: 24.3% | –
Cc1ccc(C)c(NC(=O)CCn2nc(C)c3c(C)n(-c4ccccc4)nc3c2=O)c1 | inactive: 1.89% | –
Cc1nc(-c2ccc(Cl)cc2)sc1CCNC(=O)c1ccc(C(F)(F)F)cc1 | inactive: -22.8% | –
Cc1ccc(C)c(NC(=O)c2ccc3c(c2)CCN3S(C)(=O)=O)c1 | – | inactive
COc1ccccc1C(=O)OCc1cc(=O)n2nc(C3CC3)sc2n1 | inactive: -3.89% | –
CCC1CCc2nc3sc(C(=O)Nc4ccc(F)c(Cl)c4)c(N)c3cc2C1 (stereo unspecified) | – | inactive
CCC(C(=O)Nc1ccccc1C(=O)OC)n1nc(C)c2c(C)n(-c3ccc(C)cc3)nc2c1=O (stereo unspecified) | – | inactive
Cc1cccc(-c2nn3c(=O)cc(CN4CCN(S(=O)(=O)c5ccc(Cl)cc5)CC4)nc3s2)c1 | – | inactive
Cc1c(Cl)cccc1NC(=O)C(C)n1c(=O)cc(-c2ccccc2)c2c(C)nn(C)c21 (stereo unspecified) | inactive: 1.32% | –
COc1ccccc1CNC(=O)CSc1ncc2c(n1)-c1ccc(Cl)cc1N(Cc1ccccc1)S2(=O)=O | – | inactive
COc1ccc(NC(=O)C(c2ccc(C)cc2)N(C)C(=O)Cc2cccs2)cc1 (stereo unspecified) | inactive: -6.42% | –
O=C(Cn1c(=O)c2cc(Cl)ccc2n2nncc12)Nc1ccccc1 | – | inactive
Cc1ccc(NC(=O)C2CCCN2S(=O)(=O)c2ccc3c(c2)CCCC(=O)N3)cc1C (stereo unspecified) | – | inactive
